Experimental data: article PMC4359148
Results are given in words; binding and its absence hold for the method and conditions named. Some results given as binding are weak or reduced against the parent protein; the word gives no strength. Sequences can lack the tags named with a protein. Each block holds one binder with its values, some of them ahead of it.

Protein sequences, listed by entry. Tags and fused reporters are not part of them.
UniProt Q9LN01: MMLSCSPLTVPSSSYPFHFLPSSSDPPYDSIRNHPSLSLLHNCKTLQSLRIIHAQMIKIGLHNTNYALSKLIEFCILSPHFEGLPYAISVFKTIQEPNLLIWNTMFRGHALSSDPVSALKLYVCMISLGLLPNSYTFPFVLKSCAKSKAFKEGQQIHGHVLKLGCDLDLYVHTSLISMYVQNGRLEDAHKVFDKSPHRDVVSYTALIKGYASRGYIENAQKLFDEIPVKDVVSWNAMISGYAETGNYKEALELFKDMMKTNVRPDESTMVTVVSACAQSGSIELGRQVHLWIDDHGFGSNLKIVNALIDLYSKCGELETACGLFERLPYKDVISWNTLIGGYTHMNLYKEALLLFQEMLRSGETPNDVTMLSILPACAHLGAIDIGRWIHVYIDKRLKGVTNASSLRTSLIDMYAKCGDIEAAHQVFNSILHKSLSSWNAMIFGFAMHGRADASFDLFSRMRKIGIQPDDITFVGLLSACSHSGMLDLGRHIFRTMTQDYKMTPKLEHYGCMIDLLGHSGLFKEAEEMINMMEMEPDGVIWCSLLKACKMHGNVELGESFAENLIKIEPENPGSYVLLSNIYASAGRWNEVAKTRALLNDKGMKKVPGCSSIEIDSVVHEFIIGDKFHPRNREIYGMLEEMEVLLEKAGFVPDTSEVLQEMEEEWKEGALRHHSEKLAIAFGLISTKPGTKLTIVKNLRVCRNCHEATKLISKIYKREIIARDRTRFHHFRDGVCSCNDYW

Assays:
Test in all cases: two-hybrid; Gal4 AD/BD fusions (pGADT7GW, pGBKT7GW) in yeast PJ69-4, double transformants by mating; growth on -Leu -Trp -His -Ade plates, 3 days at 30°C
[1] = target: T1, OZ1, mature (without the predicted 33 aa transit peptide), yeast two-hybrid fusion (A. thaliana) (UniProt Q8S9K3)
T1 sequence: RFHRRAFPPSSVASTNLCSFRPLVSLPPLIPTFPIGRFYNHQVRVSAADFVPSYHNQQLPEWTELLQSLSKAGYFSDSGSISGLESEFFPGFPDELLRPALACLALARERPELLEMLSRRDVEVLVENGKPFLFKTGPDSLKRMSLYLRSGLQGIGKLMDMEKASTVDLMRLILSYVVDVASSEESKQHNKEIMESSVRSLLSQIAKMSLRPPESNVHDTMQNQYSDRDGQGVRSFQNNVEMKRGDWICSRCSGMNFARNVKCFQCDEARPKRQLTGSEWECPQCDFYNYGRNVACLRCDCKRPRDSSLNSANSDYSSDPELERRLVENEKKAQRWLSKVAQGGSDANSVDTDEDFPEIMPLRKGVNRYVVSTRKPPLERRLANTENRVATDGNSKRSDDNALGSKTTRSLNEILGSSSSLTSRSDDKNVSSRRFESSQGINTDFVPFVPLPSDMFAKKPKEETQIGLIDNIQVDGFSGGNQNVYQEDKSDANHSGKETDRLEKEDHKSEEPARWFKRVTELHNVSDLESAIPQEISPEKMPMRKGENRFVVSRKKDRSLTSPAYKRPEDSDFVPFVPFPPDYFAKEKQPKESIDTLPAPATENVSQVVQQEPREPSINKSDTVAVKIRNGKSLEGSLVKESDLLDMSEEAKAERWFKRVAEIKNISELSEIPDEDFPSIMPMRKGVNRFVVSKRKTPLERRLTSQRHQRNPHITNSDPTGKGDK

[2] = target: T2, RIP1 (RIP/MORF family editing factor), yeast two-hybrid fusion (Arabidopsis thaliana) (UniProt Q9LKA5)
T2 sequence: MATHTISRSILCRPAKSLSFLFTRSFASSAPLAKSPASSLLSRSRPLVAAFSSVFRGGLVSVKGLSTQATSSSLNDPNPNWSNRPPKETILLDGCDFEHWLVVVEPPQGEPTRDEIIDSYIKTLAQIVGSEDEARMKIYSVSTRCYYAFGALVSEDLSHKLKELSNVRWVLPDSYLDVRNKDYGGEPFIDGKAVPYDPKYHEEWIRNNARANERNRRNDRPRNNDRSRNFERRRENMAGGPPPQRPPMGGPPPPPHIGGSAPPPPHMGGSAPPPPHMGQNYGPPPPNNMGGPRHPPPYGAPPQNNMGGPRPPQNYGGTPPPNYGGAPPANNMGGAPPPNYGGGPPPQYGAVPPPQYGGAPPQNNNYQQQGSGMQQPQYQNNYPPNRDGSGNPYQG

[3] = target: T3, RIP2, mature, yeast two-hybrid fusion (A. thaliana) (UniProt O22793)
T3 sequence: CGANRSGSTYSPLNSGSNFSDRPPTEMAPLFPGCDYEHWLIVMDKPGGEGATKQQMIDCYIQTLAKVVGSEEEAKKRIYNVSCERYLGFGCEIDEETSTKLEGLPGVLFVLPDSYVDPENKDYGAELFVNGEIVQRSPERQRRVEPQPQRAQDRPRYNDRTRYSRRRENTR

[4] = target: T4, ORRM1, mature (without the predicted transit peptide), yeast two-hybrid fusion (Arabidopsis thaliana) (UniProt Q8L440)
T4 sequence: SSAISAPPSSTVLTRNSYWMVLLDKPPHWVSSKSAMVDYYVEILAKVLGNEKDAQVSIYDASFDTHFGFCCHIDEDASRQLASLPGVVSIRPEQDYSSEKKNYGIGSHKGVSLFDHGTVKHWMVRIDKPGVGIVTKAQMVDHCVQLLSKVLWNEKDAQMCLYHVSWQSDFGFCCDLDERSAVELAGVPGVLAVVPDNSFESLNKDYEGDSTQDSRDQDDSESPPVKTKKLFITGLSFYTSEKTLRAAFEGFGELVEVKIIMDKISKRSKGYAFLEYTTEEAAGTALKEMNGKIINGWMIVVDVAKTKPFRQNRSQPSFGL

[5] = target: T5, RIP9, mature, yeast two-hybrid fusion (A. thaliana) (UniProt Q9LPZ1)
T5 sequence: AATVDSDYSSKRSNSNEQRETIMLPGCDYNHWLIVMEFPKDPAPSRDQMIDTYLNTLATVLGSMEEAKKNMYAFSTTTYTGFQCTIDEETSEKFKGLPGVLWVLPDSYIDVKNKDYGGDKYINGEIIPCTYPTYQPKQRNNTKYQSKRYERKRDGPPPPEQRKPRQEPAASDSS

[6] = target: OTP82 (PPR site recognition factor), yeast two-hybrid fusion (Arabidopsis thaliana) (UniProt Q9LN01)
[7] = target: T6, CRR28 (PPR site recognition factor), yeast two-hybrid fusion (Arabidopsis thaliana) (UniProt Q0WQW5)
T6 sequence: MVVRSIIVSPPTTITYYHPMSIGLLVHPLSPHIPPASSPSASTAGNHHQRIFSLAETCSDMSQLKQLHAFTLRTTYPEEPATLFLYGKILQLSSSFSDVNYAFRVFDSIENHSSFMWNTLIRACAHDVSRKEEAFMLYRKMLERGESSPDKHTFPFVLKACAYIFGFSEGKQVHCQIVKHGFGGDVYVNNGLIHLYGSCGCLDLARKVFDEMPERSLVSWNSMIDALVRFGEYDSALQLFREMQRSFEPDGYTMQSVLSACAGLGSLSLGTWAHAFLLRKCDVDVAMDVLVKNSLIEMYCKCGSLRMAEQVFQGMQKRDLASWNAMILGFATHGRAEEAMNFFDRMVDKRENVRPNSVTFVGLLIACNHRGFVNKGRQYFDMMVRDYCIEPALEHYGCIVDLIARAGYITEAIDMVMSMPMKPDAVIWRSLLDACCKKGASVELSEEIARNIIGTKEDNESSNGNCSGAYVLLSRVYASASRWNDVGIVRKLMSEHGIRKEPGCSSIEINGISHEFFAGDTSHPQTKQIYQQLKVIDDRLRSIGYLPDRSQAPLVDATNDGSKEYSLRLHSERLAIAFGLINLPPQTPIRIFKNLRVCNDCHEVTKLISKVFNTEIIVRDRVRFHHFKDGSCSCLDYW

- binding [1]: binds
B1: nORRM1: amino acids 55-274 of ORRM1, which contains the RIP-RIP domain (domain or fragment, UniProt Q8L440 55-274)
chain: SSAISAPPSSTVLTRNSYWMVLLDKPPHWVSSKSAMVDYYVEILAKVLGNEKDAQVSIYDASFDTHFGFCCHIDEDASRQLASLPGVVSIRPEQDYSSEKKNYGIGSHKGVSLFDHGTVKHWMVRIDKPGVGIVTKAQMVDHCVQLLSKVLWNEKDAQMCLYHVSWQSDFGFCCDLDERSAVELAGVPGVLAVVPDNSFESLNKDYEGDSTQDSRDQDDS

- binding [2]: binds weakly
- binding [3]: no binding
- binding [4]: binds
- binding [5]: no binding
- binding [6]: binds
- binding [7]: binds
- binding [1]: binds
B2: OZ1, mature (without the predicted 33 aa transit peptide), yeast two-hybrid fusion (protein, UniProt Q8S9K3 34-758)
chain: T1 sequence

- binding [2]: binds
- binding [3]: binds
- binding [1]: binds
B3: ORRM1, mature (without the predicted transit peptide), yeast two-hybrid fusion (protein, UniProt Q8L440 55-374)
chain: T4 sequence

- binding [1]: no binding
B4: cORRM1: amino acids 275-374 of ORRM1, which contains the RRM domain (domain or fragment, UniProt Q8L440 275-374)
chain: ESPPVKTKKLFITGLSFYTSEKTLRAAFEGFGELVEVKIIMDKISKRSKGYAFLEYTTEEAAGTALKEMNGKIINGWMIVVDVAKTKPFRQNRSQPSFGL
